# Values joined by “and” are separate entries in the source; they are usually repeats but may differ in a detail not shown here. Equal values may be shown once. Screen size: about 420,000 compounds; about 64,000 (15%) were called active. Inconclusive results, whose numbers are uncertain, are shown with a selection of clear calls. The call rests on the fitted dose curve; in most records, active means well fitted inhibition curve with a large enough effect; inconclusive means small, poorly fitted or top-dose-only effect; inactive means flat fitted curve, though single readings scatter. Potencies of inconclusive entries are doubtful fits and often do not repeat.
# Assay: qHTS for Inhibitors of human tyrosyl-DNA phosphodiesterase 1 (TDP1): qHTS in cells in absence of CPT; further: nearly all actives have a fitted effect of over 55% in size
# Conditions: DT40 Tdp1-/- hTDP1 cells, no CPT, ATP luminescence, 48 h; series mostly up to 46.2 µM
# In short: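 A cellular qHTS used chicken DT40 cells lacking endogenous Tdp1 but carrying stably transfected human TDP1. Compounds were applied without camptothecin, and cell growth kinetics were judged by ATP-dependent luminescence after ≥48 hr.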
# Potency means the concentration at half of the fitted maximal effect; tags describe the fitted curve by direction and shape.
row,SMILES,Potency
1,Cn1nc(C(=O)N2CCCCC2)c2c1-c1ccccc1S(=O)(=O)C2,inactive
2,Cc1ccc(C(=O)NCC(=O)OCC(=O)Nc2ncc(C(F)(F)F)cc2Cl)cc1,inactive
3,CCOc1ccccc1NC(=O)C1CCN(c2ccc(S(=O)(=O)N3CCCC3)cc2)CC1,"inconclusive: 31.6 µM [inhibitor, single point]"
4,Cc1ccnc(-n2c(C)cc(C=O)c2C)c1,inactive
5,Nc1nonc1-c1nc2ccccc2n1Cc1ccccc1,active: 29.1 µM
6,O=C(CSc1nnc(Cn2nnc3ccccc32)o1)N(Cc1ccc(Cl)cc1)c1ccccc1,active: 7.31 µM
7,NNc1ccc2c(C(F)(F)F)cc(C(F)(F)F)nc2n1,"inconclusive: 29.1 µM [inhibitor, single point]"
8,COc1ccccc1NC(=O)NCCN1CCCCC1,inactive
9,CC(C)CN(Cc1cc(=O)oc2cc(-c3ccccc3)c(O)cc12)CC(C)C,"inconclusive: 29.1 µM [inhibitor, single point]"
10,CCOc1ccc(-n2ccnc2SCC(=O)Nc2cccc3ccccc23)cc1,"inconclusive: 29.1 µM [inhibitor, single point]"
11,COc1ccc(CCNC(=O)CCn2c(SCC#N)nc3ccccc3c2=O)cc1OC,"inconclusive: 32.6 µM [inhibitor, single point]"
12,N=c1c(S(=O)(=O)c2ccccc2)cc2c(=O)n3ccccc3nc2n1Cc1cccnc1,inactive
13,O=C(O)CCN1C(=O)/C(=C\c2ccncc2)SC1=S,"inconclusive: 29.1 µM [inhibitor, single point]"
14,CCOC(=O)c1c(C)[nH]c(O)c1C=Nc1ccc(C(F)(F)F)cc1,"inconclusive: 29.1 µM [inhibitor, single point]"
15,COc1ccc(Br)cc1CNC(=O)c1ccc2nc(C(C)C)oc2c1,inactive
16,CC1=N/C(=C\c2ccc([N+](=O)[O-])cc2)C(=O)N1c1ccc(F)cc1F,active: 18.4 µM
17,CN(CC1CCOCC1)C(=O)CC1C(=O)NCCN1Cc1cccc(C(F)(F)F)c1 (configuration not stated),inactive
18,Cc1cccc(N2C(=O)CC(Sc3nc(-c4ccccc4)c4cc(Cl)ccc4n3)C2=O)c1 (configuration not stated),"inconclusive: 29.1 µM [inhibitor, single point]"
19,Cc1cc(NCCCn2ccnc2)n2c(nc3ccccc32)c1C#N,"inconclusive: 0.164 µM [inhibitor, full curve]"
20,Cc1c(N=C2N=C(NC(=O)NC(C)(C)C)c3ccccc32)c(=O)n(-c2ccccc2)n1C,"inconclusive: 29.1 µM [inhibitor, single point]"
21,O=C(c1ccc(CNS(=O)(=O)c2ccc(Br)cc2)cc1)N1CCCCC1,"inconclusive: 18.4 µM [inhibitor, partial curve]"
22,COc1ccc(S(=O)(=O)N(C)C[C@H]2Oc3c(cccc3N(C)C)C(=O)N([C@H](C)CO)C[C@@H]2C)cc1,"inconclusive: 18.4 µM [inhibitor, single point]"
23,COC(=O)c1sc2nc3c(cc2c1N)C(=O)CC(C)(C)C3,inactive

row,SMILES,Potency
1,CCN1CCN(Cc2ccc(NC(=O)c3cc(NC(=O)C4=NN(c5ccccc5)C(=O)C4)cc(OC)c3)cc2C(F)(F)F)CC1,"inactive and inconclusive: 29.1 µM [inhibitor, single point]"
2,COc1ccc(-c2cc(=Nc3ccc(C)cc3)c3ccccc3o2)cc1,"inconclusive: 29.1 µM [inhibitor, single point]"
3,CCOc1ccccc1CNC(=O)CCC(=O)N1CCSc2ccccc21,"inconclusive: 29.1 µM [inhibitor, single point]"
4,O=c1cnc2ccccc2n1Cc1ccc(Br)cc1,"inconclusive: 25.9 µM [inhibitor, single point]"
5,COc1ccccc1N1CCN(C2CCN(S(=O)(=O)c3ccc(NC(C)=O)cc3)CC2)CC1,inactive
6,CCN(Cc1ccccc1)S(=O)(=O)c1ccc2oc(C(=O)O)c(C)c2c1,inactive
7,CC(C)c1ccc(NS(=O)(=O)c2cccc3cccnc23)cc1,inactive
8,COc1ccc(-c2nnc(SCCOc3cccc(C)c3)n2N)cc1,inactive
9,O=CC(=O)c1ccc(Cl)cc1,"inconclusive: 15.8 µM [inhibitor, single point]"
10,COCCn1c(=O)[nH]c2cc(C(=O)N3CCN(c4cccc(Cl)c4)CC3)ccc2c1=O,active: 9.2 µM
11,CCOc1cc(/C=N/NC(=O)c2cc(-c3cccnc3)nc3ccccc23)ccc1O,active: 6.51 µM
12,CCN(CC)C(=O)CSc1ncnc2sc(-c3ccccc3)cc12,"inconclusive: 18.4 µM [inhibitor, single point]"
13,CN1C(CSCC(F)(F)F)Nc2cc(Cl)c(S(N)(=O)=O)cc2S1(=O)=O (configuration not stated),"inconclusive: 26.6 µM [inhibitor, single point]"
14,Cc1ccc(S(=O)(=O)N2CCCC2C(=O)Nc2nc3ccccc3s2)cc1 (configuration not stated),"inconclusive: 11.6 µM [inhibitor, partial curve]"
15,COc1ccc(-n2nc(C(=O)NCC(=O)NCCc3ccc(OC)c(OC)c3)c3ccccc3c2=O)cc1,"inconclusive: 29.1 µM [inhibitor, single point]"
16,Cc1ccc(NC(=O)CN2C(=O)C(c3ccc(C(C)(C)C)cc3)=NC2(C)C)cc1,"inconclusive: 18.4 µM [inhibitor, single point]"
17,Cc1cccc(NC(=O)CCN2CCN(C/C=C/c3ccccc3)CC2)c1,active: 20.6 µM
18,CC(=O)N/N=C(\C)CC(=O)NC(C)(C)C,inactive
19,CCCN(CCC)C(=O)CSc1c2c(nc3ccc(Cl)cc13)CCCC2,"inconclusive: 23.1 µM [inhibitor, partial curve, poor fit]"
20,COc1ncnc2c1N[C@@](C)(O)c1c(F)c(F)c(F)c(F)c1S2,"inconclusive: 16.4 µM [inhibitor, single point]"
21,COc1ccc(C)cc1NC(=O)CNC(=O)c1sc2ccccc2c1Cl,"inconclusive: 0.0046 µM [inhibitor, full curve, poor fit]"
22,Cc1cc(NC(=O)Nc2cccc(Cl)c2)no1,"inconclusive: 29.1 µM [inhibitor, single point]"
23,Cc1cc(C)cc(-n2c(SCC(=O)Nc3cccc(F)c3)nc3c([nH]c4ccccc43)c2=O)c1,"inconclusive: 29.1 µM [inhibitor, single point]"

row,SMILES,Potency
1,COc1ccc(C(C)=O)cc1CSc1nnc(-c2ccccc2O)n1-c1ccccc1,"inconclusive: 12.6 µM [inhibitor, partial curve, poor fit]"
2,Cc1ccc(Cl)cc1N1CCN(S(=O)(=O)c2c(C(=O)N3CCOCC3)c(C)n(C)c2C)CC1,"inconclusive: 32.6 µM [inhibitor, single point]"
3,Cc1onc(-c2ccccc2)c1C(=O)NCCCc1ccccc1,"inconclusive: 32.6 µM [inhibitor, single point]"
4,CC1(C)CC[C@]2(C(=O)O)CC[C@]3(C)C(=CCC4[C@@]5(C)CC[C@H](O)C(C)(C)C5[C@H](O)C[C@]43C)[C@@H]2C1 (some centres not stated),"inconclusive: 29.1 µM [inhibitor, single point]"
5,N#Cc1ccc(C(=O)OCC(=O)Nc2ccc(S(N)(=O)=O)cc2)cc1,inactive
6,Brc1ccc(Nc2c3c(nc4nncn24)CCC3)cc1,active: 18.4 µM
7,N=C1S/C(=C\c2ccc(O)cc2)C(=O)N1c1ccc(F)cc1,"inconclusive: 6.51 µM [inhibitor, partial curve]"
8,CCCOC(=O)c1ccc(Oc2c(-c3ccc(OC)cc3O)n[nH]c2C)cc1,"inconclusive: 29.1 µM [inhibitor, single point]"
9,COc1ccc(SCCN2CC[C@@H](C)CCC2=O)cc1,"inconclusive: 25.1 µM [inhibitor, single point]"
10,C=CCn1c(SCC(=O)Nc2cc(OC)c(NC(=O)c3ccco3)cc2OC)nnc1-c1ccncc1,"inconclusive: 29.1 µM [inhibitor, single point]"
11,Cc1ccc(C(=O)Nc2ccc(-c3nc4ccccc4o3)cc2)cc1Cl,"inconclusive: 1.64 µM [inhibitor, partial curve]"
12,O=C(Oc1c(-c2ccccc2)c(=O)n2c3c(cccc13)CC2)c1ccco1,"inconclusive: 20.6 µM [inhibitor, single point]"
13,Cc1cccc(-n2c(O)c(C=NCc3ccccn3)c3ccccc3c2=O)c1,"inconclusive: 7.31 µM [inhibitor, partial curve]"
14,O=C(COc1ccc(Br)cc1)NCCCNC(=O)c1cccnc1,"inconclusive: 20.6 µM [inhibitor, single point]"
15,CC(C)(C)OC(=O)N1CCN(C(=O)OCC2c3ccccc3-c3ccccc32)CC1C(=O)O (configuration not stated),"inconclusive: 18.4 µM [inhibitor, partial curve, poor fit]"
16,Cc1ccc(C)c(NC(=O)C(Cc2ccccc2)n2cccc2)c1 (configuration not stated),active: 16.4 µM
17,Cc1noc(C)c1COc1cccc(C(=O)N2CCc3ccccc32)c1,"inconclusive: 20.6 µM [inhibitor, single point]"
18,COc1ccc(S(=O)(=O)NC2CC(=O)N(c3cccc(F)c3)C2)cc1OC (configuration not stated),"inconclusive: 25.9 µM [inhibitor, single point]"
19,O=C(/C(=C(\[O-])c1ccccc1)[n+]1ccc2ccccc2c1)c1ccccc1,"inconclusive: 29.1 µM [inhibitor, single point]"
20,O=C(/C=C/c1cccc([N+](=O)[O-])c1)NCCSCc1ccc(Cl)cc1,"inconclusive: 23.1 µM [inhibitor, partial curve]"
21,O=C(c1ccc(Br)cc1)N1CCCc2ccccc21,"inconclusive: 16.4 µM [inhibitor, single point]"

# From PubChem BioAssay AID686978 (National Center for Advancing Translational Sciences (NCATS), 2013)
